Experimental data taken from PubChem BioAssay AID488969 (Vanderbilt High Throughput Screening Facility, 2010).
In all, about 110,000 compounds were measured (“z-score”: median about -0.1, highest 2% from about 2 on). The list shows a part of the results.

Each molecule was assayed against Metabotropic glutamate receptor 8 (Rattus norvegicus) (UniProt P70579) (assay: mGluR8 Gi/Go-coupled signaling modulation – cell-based, rat, thallium flux, HTS, primary screen (AID 488969)). Details: HEK293 rat mGluR8, GIRK (G protein-gated inwardly rectifying potassium channel) thallium flux, FluoZin2; at 10 µM; stronger effect = higher value; submaximal glutamate (EC20) added with thallium.
Sequence of UniProt P70579 (P70579 whole entry, looked up): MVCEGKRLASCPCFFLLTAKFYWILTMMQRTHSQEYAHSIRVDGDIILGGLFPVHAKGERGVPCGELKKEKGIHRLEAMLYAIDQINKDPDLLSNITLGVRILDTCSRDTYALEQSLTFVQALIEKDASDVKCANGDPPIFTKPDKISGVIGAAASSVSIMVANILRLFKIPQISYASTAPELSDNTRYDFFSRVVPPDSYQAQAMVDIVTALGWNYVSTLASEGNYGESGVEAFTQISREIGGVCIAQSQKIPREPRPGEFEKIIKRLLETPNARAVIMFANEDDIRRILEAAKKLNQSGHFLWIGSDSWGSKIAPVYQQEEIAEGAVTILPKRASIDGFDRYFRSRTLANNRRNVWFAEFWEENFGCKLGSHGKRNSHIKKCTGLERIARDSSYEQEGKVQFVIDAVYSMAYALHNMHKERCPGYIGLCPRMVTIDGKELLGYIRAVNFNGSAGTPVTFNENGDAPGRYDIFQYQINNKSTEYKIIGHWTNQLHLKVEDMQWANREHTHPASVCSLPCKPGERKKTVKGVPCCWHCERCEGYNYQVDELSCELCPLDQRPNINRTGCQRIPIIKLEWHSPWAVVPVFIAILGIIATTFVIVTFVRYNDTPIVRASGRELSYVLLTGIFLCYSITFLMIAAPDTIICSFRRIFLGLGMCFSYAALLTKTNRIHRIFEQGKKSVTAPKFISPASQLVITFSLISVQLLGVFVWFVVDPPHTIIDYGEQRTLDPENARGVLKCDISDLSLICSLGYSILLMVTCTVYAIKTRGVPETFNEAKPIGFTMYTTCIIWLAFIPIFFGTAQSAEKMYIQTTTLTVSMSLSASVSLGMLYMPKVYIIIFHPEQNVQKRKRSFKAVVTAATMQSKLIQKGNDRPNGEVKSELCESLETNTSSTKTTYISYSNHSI
Molecule `COc1ccc(CNC(=O)CSc2ccc(Br)cc2)cc1OC` has a z-score of 0.192.
In the case of `CC(=O)NC(CCS(C)(=O)=O)C(=O)Nc1cccc(C)c1C` (centres undefined), the z-score is reported as -0.236.
In the case of `C=CCn1c(C)cc(C(=O)COC(=O)[C@@H](NC(=O)c2ccccc2Cl)C(C)C)c1C`, the z-score is reported as -0.72.
With `CCCS(=O)(=O)N1CCCC(C(=O)NC2CCCCC2)C1` (centres undefined) the z-score was 0.0604.
Work on `COc1ccc(C(C(C(=O)c2cccs2)N2CCOCC2)N2CCOCC2)cc1OC` (centres undefined) yielded a z-score of 0.692.
For `O=C(/C=C/c1cccc([N+](=O)[O-])c1)NCCN1CCOCC1`, the z-score was -0.0971.
Molecule `Clc1cccc(Cl)c1-c1nnc2cccc(Cl)n12` has a z-score of -0.269.
In the case of `CCCCOc1c(Cl)cc(CNC(C)(C)CO)cc1OCC`, the z-score is reported as 0.55.
With `c1csc(-c2cnc3n2CCCC3)c1` the z-score was 0.383.
`Nc1nc(NC(=O)c2ccc(Cl)cc2)nn1-c1ccccc1` showed a z-score of 0.108.
Molecule `C/C(=N\NC(=O)c1ccccc1C)c1ccc(NC(=O)c2cccs2)cc1` has a z-score of -0.494.
`Cc1ccc(/C=C/C(=O)Nc2sc3c(c2C#N)CCCC3)o1` showed a z-score of -0.479.
In the case of `COc1ccc(N=C2S/C(=C\c3ccco3)C(=O)N2CC(C)C)cc1`, the z-score is reported as 0.317.
For `CN(C1=C(N2CCOCC2)C(=O)c2ccccc2C1=O)c1ccccc1`, the z-score was -0.245.
Molecule `Cc1ccc2[nH]c(=O)c3cc(C(=O)N(C)Cc4ccco4)sc3c2c1` has a z-score of -0.199.
`CC(C)(C)c1ccc(-c2cc(C(=O)NNC(=O)Nc3ccccc3)c3ccccc3n2)cc1` gave a z-score of -0.224.
Molecule `Cc1[nH][nH]c(=O)c1C(c1c(C)[nH][nH]c1=O)c1cn(Cc2cccc3ccccc23)c2ccccc12` has a z-score of -0.435.
`CC(=O)c1c(C)[nH]c(C(=O)OCC(=O)Nc2ccc(C)cc2[N+](=O)[O-])c1C` gave a z-score of -0.12.
With `COc1ccc(CCNC(=O)C2CCN(S(C)(=O)=O)CC2)cc1` the z-score was 0.184.
With `CCOc1ccc(CCNS(=O)(=O)c2cccc3nsnc23)cc1OCC` the z-score was -0.446.
In the case of `COc1ccc(-n2cccc2C=O)cc1`, the z-score is reported as -0.00429.
For `CC1=CC(C)(C)N(C(=O)CSc2ncn[nH]2)c2ccccc21`, the z-score was -0.118.
Work on `Cc1nn(Cc2ccccc2Cl)c(Cl)c1/C=C/C(=O)OCC(=O)NC(N)=O` yielded a z-score of -0.165.
`O=C(OCc1nnc(-c2ccccc2)o1)c1ccc(S(=O)(=O)NCc2ccco2)cc1` showed a z-score of -0.0322.
`Cc1nc(CC(=O)Nc2nc(C(C)(C)C)cs2)cs1` showed a z-score of 0.603.
`CC(C)COC(=O)Cc1c(O)c2ccccc2[nH]c1=O` showed a z-score of -0.0593.
With `COc1ccc(C2NC(=O)c3ccccc3O2)c(OC)c1OC` (centres undefined) the z-score was 0.587.
For `CCc1nnc(NC(=O)CSc2nc3c(cc2C#N)CCCC3)s1`, the z-score was 0.0301.
`CCCNC(=O)CN(c1ccccc1)S(=O)(=O)c1ccc(OC)c(OC)c1` gave a z-score of -0.0477.
With `O=C(Cc1csc(-c2ccccc2)n1)NCc1ccccc1F` the z-score was -0.471.
`COC(=O)c1c(NC(=O)c2ccc(C)c(S(=O)(=O)Nc3ccccc3C)c2)sc2c1CCCC2` was tested, and the z-score was 0.697.
Molecule `c1ccc(Cn2nnnc2C(c2cccnc2)N2CCN(C3CCCCC3)CC2)cc1` (centres undefined) has a z-score of -0.537.
Molecule `CCCCCCCC(=O)NNC(=O)c1ccc(F)cc1` has a z-score of -0.223.
For `C=CC(=O)NC(NC(=O)C=C)c1ccc(Br)cc1`, the z-score was -0.201.
In the case of `COCCN(C(=O)Cc1cccs1)c1nnc(-c2cccnc2)s1`, the z-score is reported as -0.159.
`COc1ccc(OCCCC(=O)Nc2ccc3c(c2)OCCO3)cc1` was tested, and the z-score was -0.179.
For `COc1ccc(S(=O)(=O)NCCc2csc(C)n2)cc1C`, the z-score was -0.522.
`Cc1cc(C)nc(Nc2n[nH]c(-c3ccccc3Br)n2)n1` was tested, and the z-score was -0.844.
For `Fc1cc(Br)ccc1NC(=S)Nc1ccccc1`, the z-score was 0.843.
Work on `CO/N=C(/c1nonc1N)N1CCN(c2ccc([N+](=O)[O-])cc2)CC1` yielded a z-score of 0.181.
In the case of `Cc1ccc(N2C(=O)CCSC23C(=O)Nc2ccccc23)cc1` (centres undefined), the z-score is reported as -0.0429.
`COc1ccc(C2C(C#N)=C(N)Oc3cc(C)n(Cc4ccco4)c(=O)c32)cc1` (centres undefined) gave a z-score of -0.427.
`Cc1cc(C)n(CCc2nc(-c3ccc(C)o3)cs2)n1` showed a z-score of 0.0644.
For `CN(C)S(=O)(=O)c1ccc(Oc2ccc(S(=O)(=O)N(C)C)cc2)cc1`, the z-score was -0.0806.
In the case of `CCOc1ccc(CNC(=O)C2CCN(S(=O)(=O)CC)CC2)cc1OC`, the z-score is reported as 0.0245.
`CCOC(=O)C(NC(C)=O)C(OC(C)=O)c1cccc([N+](=O)[O-])c1` (centres undefined) showed a z-score of -0.158.
Work on `Cc1ccc(NS(=O)(=O)c2ccc(NS(=O)(=O)c3cccs3)cc2)cc1` yielded a z-score of -0.416.
`Cn1c(=O)c2c(nc(CN3CCN(c4ccccc4)CC3)n2CCCc2ccccc2)n(C)c1=O` showed a z-score of -0.313.
With `O=C(c1ccc2c(c1)OCO2)N(CC1CCCO1)C1(C(=O)NC2CCCCC2)CCCCC1` (centres undefined) the z-score was 0.662.
In the case of `O=C(Cn1cnc2ccccc2c1=O)NC1CCCc2ccccc21` (centres undefined), the z-score is reported as 0.244.
`O=C(c1ccccc1NS(=O)(=O)c1cccc([N+](=O)[O-])c1)N1CCOCC1` gave a z-score of -0.138.
In the case of `COc1ccc(-c2oc(NC(=O)CCl)c(C#N)c2-c2ccc(OC)cc2)cc1`, the z-score is reported as -0.419.
`Cc1c(C(c2cccc([N+](=O)[O-])c2O)c2c(C)n(C)n(-c3ccccc3)c2=O)c(=O)n(-c2ccccc2)n1C` gave a z-score of -0.0431.
Work on `Cc1cc(C(=O)Nc2cccc(O)c2)co1` yielded a z-score of 0.113.
Work on `O=C(CN(c1ccc(F)cc1)S(=O)(=O)c1ccc2c(c1)OCCO2)Nc1ccc2c(c1)OCO2` yielded a z-score of 0.148.
Work on `COc1ccccc1NS(=O)(=O)c1cc([N+](=O)[O-])ccc1N/N=C/c1c(C)[nH]c2ccccc12` yielded a z-score of 0.13.
Molecule `CCSCCC(NC1=CC(=O)CC(C)(C)C1)C(=O)O` (centres undefined) has a z-score of -0.215.
`CNc1cnn(-c2ccccc2)c(=O)c1Cl` was tested, and the z-score was -0.78.
Work on `CCCCC(NC(C)=O)c1nc2ccccc2n1CCC` (centres undefined) yielded a z-score of -0.147.
Molecule `COc1ccc(C(=O)N2CCC(N3CCN(c4ccccc4)CC3)CC2)cc1` has a z-score of -0.292.
In the case of `C(=N\n1cnc2ccccc21)/c1cccnc1`, the z-score is reported as -0.0941.
For `Clc1ccc(C2Nc3ccccc3-n3cccc32)cc1` (centres undefined), the z-score was 1.16.
Work on `CCNC(=O)C(C)Sc1ccc(Cl)cc1` (centres undefined) yielded a z-score of -0.148.
Work on `COc1ccc2nc3sc(C(=O)NCCCN4CCc5ccccc5C4)cc3cc2c1` yielded a z-score of 0.283.
`Cc1ccc(-c2nc(-c3cccnc3)no2)c(C)c1` gave a z-score of -0.00682.
With `Cc1c(NC(=O)COC(=O)c2cc(-c3ccc(-c4ccccc4)cc3)nc3ccccc23)c(=O)n(-c2ccccc2)n1C` the z-score was -0.309.
`Cc1cc(C)cc(NC(=S)NCCc2ccc(S(N)(=O)=O)cc2)c1` showed a z-score of 0.00822.
In the case of `Cc1ccc(NS(=O)(=O)c2ccc(NC(=O)CSc3ccc(Cl)cc3)cc2)c(C)c1`, the z-score is reported as -0.0812.
With `O=C(O)CCCCCNC(=O)Nc1ccc2c(c1)OCCO2` the z-score was -0.258.
